# Laboratory results from the supplement of paper PMC8728848.
# Some of the results follow.
# B1: Pwp5 ND (Candida glabrata) (protein)
# chain: MGSSHHHHHHSSGLVPRGSHMASANPVPLTNVCYFPEEYPRQAGFRAITAGLASTILQGSVDELLNYSGLSSLTTQQTTTTTPNFQLPTLPLPTNVYGLTVVPLYLLVQLQGYFVPPVSGQYTFSLENTNDAAIIFFGNPSAFPCGDLSAWPQASADDITVTDGTFPSRTLFLKAGVAYPMRISYYNSLGSGNLAVSFTDPGGTKRTNWNGYIWRYNSCSTCTYT
# Columns and labels:
# Assay in all cases: glycan array binding signal (z-score within array); higher = stronger binding
# Conditions in all cases: glycan notation: IUPAC condensed, linker removed
# [1] = molecular target: Gal(b1-3)GlcNAc(b1-2)Man(a1-3)[Gal(b1-3)GlcNAc(b1-2)Man(a1-6)]Man(b1-4)GlcNAc(b1-4)[Fuc(a1-6)]GlcNAc
# Method in brief: (§1)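 Glycan array data came from 3228 arrays in the Consortium for Functional Glycomics database, and only arrays with an available protein sequence were kept. Glycan names were put into IUPAC-condensed notation, and columns mapping to the same glycan were averaged. The binding signal is a within-array Z-score, averaged across arrays of one protein sequence run at different concentrations or buffers and across linkers. A negative Z-score can be read as non-binding.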
# [2] = molecular target: Gal(b1-3)GlcNAc(b1-2)Man(a1-3)[GlcNAc(b1-4)][Gal(b1-3)GlcNAc(b1-2)Man(a1-6)]Man(b1-4)GlcNAc(b1-4)GlcNAc
# Method in brief: as §1
# [3] = molecular target: Gal(b1-3)GlcNAc(b1-2)[Gal(b1-3)GlcNAc(b1-6)]Man(a1-6)[Gal(b1-3)GlcNAc(b1-2)Man(a1-3)]Man(b1-4)GlcNAc(b1-4)GlcNAc
# Method in brief: as §1
# [4] = molecular target: Gal(b1-3)GlcNAc(b1-3)Gal(b1-3)GlcNAc
# Method in brief: as §1
# [5] = molecular target: Gal(b1-3)GlcNAc(b1-3)Gal(b1-4)Glc
# Method in brief: as §1
# [6] = molecular target: Gal(b1-3)GlcNAc(b1-3)Gal(b1-4)GlcNAc
# Method in brief: as §1
# [7] = molecular target: Gal(b1-3)GlcNAc(b1-3)Gal(b1-4)GlcNAc(b1-2)Man(a1-3)[Gal(b1-3)GlcNAc(b1-3)Gal(b1-4)GlcNAc(b1-2)Man(a1-6)]Man(b1-4)GlcNAc(b1-4)GlcNAc
# Method in brief: as §1
# [8] = molecular target: Gal(b1-3)GlcNAc(b1-3)Gal(b1-4)GlcNAc(b1-2)[Gal(b1-3)GlcNAc(b1-3)Gal(b1-4)GlcNAc(b1-6)]Man(a1-6)[Gal(b1-3)GlcNAc(b1-3)Gal(b1-4)GlcNAc(b1-2)Man(a1-3)]Man(b1-4)GlcNAc(b1-4)[Fuc(a1-6)]GlcNAc
# Method in brief: as §1
# [9] = molecular target: Gal(b1-3)GlcNAc(b1-3)Gal(b1-4)GlcNAc(b1-3)Gal(b1-4)GlcNAc(b1-2)[Gal(b1-3)GlcNAc(b1-3)Gal(b1-4)GlcNAc(b1-3)Gal(b1-4)GlcNAc(b1-6)]Man(a1-6)[Gal(b1-3)GlcNAc(b1-3)Gal(b1-4)GlcNAc(b1-3)Gal(b1-4)GlcNAc(b1-2)Man(a1-3)]Man(b1-4)GlcNAc(b1-4)[Fuc(a1-6)]GlcNAc
# Method in brief: as §1
# [10] = molecular target: Gal(b1-3)GlcNAc(b1-3)Gal(b1-4)GlcNAc(b1-6)[Gal(b1-3)GlcNAc(b1-3)]Gal(b1-4)Glc
# Method in brief: as §1
# [11] = molecular target: Gal(b1-3)GlcNAc(b1-3)Gal(b1-4)[Fuc(a1-3)]GlcNAc
# Method in brief: as §1
# [12] = molecular target: Gal(b1-3)GlcNAc(b1-3)Gal(b1-4)[Fuc(a1-3)]GlcNAc(b1-6)[Gal(b1-3)GlcNAc(b1-3)]Gal(b1-4)Glc
# Method in brief: as §1
# [13] = molecular target: Gal(b1-3)GlcNAc(b1-3)GalNAc
# Method in brief: as §1
# [14] = molecular target: Gal(b1-3)GlcNAc(b1-6)Gal(b1-4)GlcNAc
# Method in brief: as §1
# [15] = molecular target: Gal(b1-3)GlcNAc(b1-6)GalNAc
# Method in brief: as §1
# [16] = molecular target: Gal(b1-3)GlcNAc(b1-6)[Gal(b1-3)]GalNAc
# Method in brief: as §1
# [17] = molecular target: Gal(b1-3)GlcNAc6S
# Method in brief: as §1
# [18] = molecular target: Gal(b1-3)[Fuc(a1-4)]GlcNAc
# Method in brief: as §1
# [19] = molecular target: Gal(b1-3)[Fuc(a1-4)]GlcNAc(b1-2)Man
# Method in brief: as §1
# [20] = molecular target: Gal(b1-3)[Fuc(a1-4)]GlcNAc(b1-2)Man(a1-3)[Gal(b1-3)[Fuc(a1-4)]GlcNAc(b1-2)Man(a1-6)]Man(b1-4)GlcNAc(b1-4)[Fuc(a1-6)]GlcNAc
# Method in brief: as §1
# [21] = molecular target: Gal(b1-3)[Fuc(a1-4)]GlcNAc(b1-3)Gal(b1-3)[Fuc(a1-4)]GlcNAc
# Method in brief: as §1
# [22] = molecular target: Gal(b1-3)[Fuc(a1-4)]GlcNAc(b1-3)Gal(b1-4)[Fuc(a1-3)]GlcNAc
# Method in brief: as §1
# [23] = molecular target: Gal(b1-3)[Fuc(a1-4)]GlcNAc(b1-6)GalNAc
# Method in brief: as §1
# [24] = molecular target: Gal(b1-3)[GlcNAc(b1-6)]GalNAc
# Method in brief: as §1
# [25] = molecular target: Gal(b1-3)[Neu5Ac(a2-6)]GalNAc
# Method in brief: as §1
# [26] = molecular target: Gal(b1-3)[Neu5Ac(a2-6)]GlcNAc(b1-4)Gal(b1-4)Glc
# Method in brief: as §1
# [27] = molecular target: Gal(b1-3)[Neu5Ac(b2-6)]GalNAc
# Method in brief: as §1
# [28] = molecular target: Gal(b1-4)Gal
# Method in brief: as §1
# [29] = molecular target: Gal(b1-4)GalNAc(a1-3)[Fuc(a1-2)]Gal(b1-4)GlcNAc
# Method in brief: as §1
# [30] = molecular target: Gal(b1-4)GalNAc(b1-3)[Fuc(a1-2)]Gal(b1-4)GlcNAc
# Method in brief: as §1
# [31] = molecular target: Gal(b1-4)Glc
# Method in brief: as §1
# [32] = molecular target: Gal(b1-4)Glc6S
# Method in brief: as §1
# [33] = molecular target: Gal(b1-4)GlcNAc
# Method in brief: as §1
# [34] = molecular target: Gal(b1-4)GlcNAc(a1-6)Gal(b1-4)GlcNAc
# Method in brief: as §1
# [35] = molecular target: Gal(b1-4)GlcNAc(b1-2)Man
# Method in brief: as §1
# [36] = molecular target: Gal(b1-4)GlcNAc(b1-2)Man(a1-3)Man(b1-4)GlcNAc(b1-4)GlcNAc
# Method in brief: as §1
# [37] = molecular target: Gal(b1-4)GlcNAc(b1-2)Man(a1-3)[Gal(b1-4)GlcNAc(b1-2)Man(a1-6)]Man(b1-4)GlcNAc(b1-4)GlcNAc
# Method in brief: as §1
# [38] = molecular target: Gal(b1-4)GlcNAc(b1-2)Man(a1-3)[Gal(b1-4)GlcNAc(b1-2)Man(a1-6)]Man(b1-4)GlcNAc(b1-4)[Fuc(a1-6)]GlcNAc
# Method in brief: as §1
# [39] = molecular target: Gal(b1-4)GlcNAc(b1-2)Man(a1-3)[Gal(b1-4)GlcNAc(b1-2)Man(a1-6)][Gal(b1-4)GlcNAc(b1-4)]Man(b1-4)GlcNAc(b1-4)[Fuc(a1-6)]GlcNAc
# Method in brief: as §1
# [40] = molecular target: Gal(b1-4)GlcNAc(b1-2)Man(a1-3)[Gal(b1-4)GlcNAc(b1-2)Man(a1-6)][GlcNAc(b1-4)]Man(b1-4)GlcNAc(b1-4)[Fuc(a1-6)]GlcNAc
# Method in brief: as §1
# [41] = molecular target: Gal(b1-4)GlcNAc(b1-2)Man(a1-3)[GlcNAc(b1-2)Man(a1-6)]Man(b1-4)GlcNAc(b1-4)GlcNAc
# Method in brief: as §1
# [42] = molecular target: Gal(b1-4)GlcNAc(b1-2)Man(a1-3)[GlcNAc(b1-4)][Gal(b1-4)GlcNAc(b1-2)Man(a1-6)]Man(b1-4)GlcNAc(b1-4)GlcNAc
# Method in brief: as §1
# [43] = molecular target: Gal(b1-4)GlcNAc(b1-2)Man(a1-3)[Man(a1-6)]Man(b1-4)GlcNAc(b1-4)GlcNAc
# Method in brief: as §1
# [44] = molecular target: Gal(b1-4)GlcNAc(b1-2)Man(a1-6)Man(b1-4)GlcNAc(b1-4)GlcNAc
# Method in brief: as §1
# [45] = molecular target: Gal(b1-4)GlcNAc(b1-2)Man(a1-6)[GlcNAc(b1-2)Man(a1-3)]Man(b1-4)GlcNAc(b1-4)GlcNAc
# Method in brief: as §1
binder,measurement,setting,value
B1,glycan array binding signal (z-score),[1],-0.447
same,glycan array binding signal (z-score),[2],-0.313
same,glycan array binding signal (z-score),[3],-0.313
same,glycan array binding signal (z-score),[4],0.281
same,glycan array binding signal (z-score),[5],-0.276
same,glycan array binding signal (z-score),[6],-0.522
same,glycan array binding signal (z-score),[7],-0.703
same,glycan array binding signal (z-score),[8],1.78
same,glycan array binding signal (z-score),[9],0.093
same,glycan array binding signal (z-score),[10],-0.519
same,glycan array binding signal (z-score),[11],-0.433
same,glycan array binding signal (z-score),[12],-0.695
same,glycan array binding signal (z-score),[13],-0.596
same,glycan array binding signal (z-score),[14],-0.247
same,glycan array binding signal (z-score),[15],1.1
same,glycan array binding signal (z-score),[16],-0.506
same,glycan array binding signal (z-score),[17],-0.528
same,glycan array binding signal (z-score),[18],-0.117
same,glycan array binding signal (z-score),[19],-0.302
same,glycan array binding signal (z-score),[20],-0.004
same,glycan array binding signal (z-score),[21],0.226
same,glycan array binding signal (z-score),[22],0.251
same,glycan array binding signal (z-score),[23],-0.101
same,glycan array binding signal (z-score),[24],-0.307
same,glycan array binding signal (z-score),[25],0.118
same,glycan array binding signal (z-score),[26],-0.51
same,glycan array binding signal (z-score),[27],-0.148
same,glycan array binding signal (z-score),[28],-0.418
same,glycan array binding signal (z-score),[29],-0.839
same,glycan array binding signal (z-score),[30],-0.47
same,glycan array binding signal (z-score),[31],-0.548
same,glycan array binding signal (z-score),[32],0.845
same,glycan array binding signal (z-score),[33],-0.067
same,glycan array binding signal (z-score),[34],-0.689
same,glycan array binding signal (z-score),[35],0.183
same,glycan array binding signal (z-score),[36],0.309
same,glycan array binding signal (z-score),[37],-0.247
same,glycan array binding signal (z-score),[38],-0.336
same,glycan array binding signal (z-score),[39],-0.557
same,glycan array binding signal (z-score),[40],-0.486
same,glycan array binding signal (z-score),[41],-0.27
same,glycan array binding signal (z-score),[42],-0.512
same,glycan array binding signal (z-score),[43],0.117
same,glycan array binding signal (z-score),[44],0.775
same,glycan array binding signal (z-score),[45],-0.5
